Results published in PubChem BioAssay AID686978 (National Center for Advancing Translational Sciences (NCATS), 2013).
Several values for one entry are separate records, joined by “and”; a condition that tells them apart may be missing. Equal values may be shown once. Among all 420,000 compounds or so, about 64,000 (15%) were called active. Inconclusive means that the source gave no clear call. Such entries were picked first, then a sample of the others. The call rests on the fitted dose curve; in most records, active means well fitted inhibition curve with a large enough effect; inconclusive means small, poorly fitted or top-dose-only effect; inactive means flat fitted curve, though single readings scatter. No potency is given beside an inconclusive call; the fits are too rough. The source holds several records for some structures; these can differ, active in one and inactive in another.

Assay: qHTS for Inhibitors of human tyrosyl-DNA phosphodiesterase 1 (TDP1): qHTS in cells in absence of CPT; further: nearly all actives have a fitted effect of over 55% in size
Settings: DT40 Tdp1-/- hTDP1 cells, no CPT, ATP luminescence, 48 h; activity change, negative = growth inhibition: at 46.2 µM (top of the series)
In short: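 Growth of hTDP1-complemented DT40 Tdp1-knockout cells is measured by ATP luminescence after at least 48 hr compound exposure at 37 °C, with DMSO substituting for the 20 nM CPT used in the parallel screen.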
On the % scale 0 is the no-effect control and ±100 the full control effect; potency means the concentration at half of the fitted maximal effect; tags describe the fitted curve by direction and shape.

SMILES	Potency	activity change, negative = growth inhibition
Cc1cc2ccccn2c1C(=O)c1cccc(F)c1	inconclusive [inhibitor, single point]	–
CCOC(=O)c1cc2c(ccn2C)n1CC(=O)N1CCN(c2ccccc2)CC1	inconclusive [inhibitor, single point]	–
CC(=O)NC1C(=O)N(CCN2CCOCC2)c2ccc(C)cc21 (stereo not given)	–	inactive: 8.59%
Cc1nn(Cc2ccc(C(=O)Nc3nc4c(C)cccc4s3)o2)c(C)c1Br	inconclusive [inhibitor, single point]	–
CCN1CCc2c(sc(NC(=S)NC(=O)c3ccccc3)c2C#N)C1	–	inactive: -21.6%
CCC1CCc2c(sc3nc(SCC(=O)NCc4ccco4)n(-c4ccccc4)c(=O)c23)C1 (stereo not given)	inconclusive [inhibitor, single point]	–
COc1ccc(C(CNC(=O)C(=O)Nc2ccc3c(c2)OCO3)N2CCN(C)CC2)cc1 (stereo not given)	inconclusive [inhibitor, single point]	–
CCCN(CCC)CCCNC(=O)C1CCC(CNS(=O)(=O)c2ccc(NC(C)=O)cc2)CC1 (stereo not given)	–	inactive: -13%
Cn1nc(N)c2c(-c3ccc(Cl)cc3)c(C#N)c(N)nc21	inconclusive [inhibitor, single point]	–
CC(C)(C)NC(=O)C(c1ccc(C#N)cc1)n1c(=O)c(-c2cc3ccccc3[nH]2)nc2ccccc21 (stereo not given)	inconclusive [inhibitor, single point]	–
CN(C)c1ccc(CNC(=O)C2Cc3c(-c4cccc(C(N)=O)c4)ccnc3O2)cc1 (stereo not given)	active: 23.1 µM	–
Cc1c(C(=O)N2CCC(Cc3ccccc3)CC2)cccc1[N+](=O)[O-]	inconclusive [inhibitor, partial curve]	–
COc1ccc2ccc(O)c(CN(C)CC(=O)Nc3ccccc3C(F)(F)F)c2c1	inconclusive [inhibitor, partial curve]	–
CC1(C(=O)Nc2ccccc2)Cc2c(-c3cccc(C(F)(F)F)c3)ccnc2O1 (stereo not given)	inconclusive [inhibitor, single point]	–
Cc1ccc(/C=C/c2nc3ccccc3c(=O)[nH]2)cc1	inconclusive [inhibitor, partial curve]	–
CCOc1ccc(CN(C)Cc2cc(=O)oc3cc(C)c(Cl)cc23)cc1	inconclusive [inhibitor, single point]	–
Cc1ccc2oc(C(=O)N3CCN(Cc4nccn4C)CC3)c(C)c2c1	–	inactive: 9.41%
COc1cc(OC)c(OC)cc1/C=C1\C=Cc2ccccc21	inconclusive [inhibitor, single point]	–
COc1ccccc1NC(=S)NNC(=O)c1nn(C)c(C)c1Br	inconclusive [inhibitor, partial curve]	–
Cc1ccc(CNC(=O)C2CCN(S(=O)(=O)c3ccc4c(c3)OCCCO4)CC2)cc1	inconclusive [inhibitor, partial curve, poor fit]	–
CCOCCCNC(=O)/C(C#N)=C/c1ccc(-c2ccc(S(=O)(=O)N3CCOCC3)cc2)o1	active: 8.2 µM	–
O=C1COc2ccc(C(=O)COC(=O)CCSc3ccc(Cl)cc3)cc2N1	–	inactive: 2.72%
Nc1nonc1-n1nnc(C(=O)N/N=C/c2ccc(Br)cc2)c1-c1ccc2c(c1)OCO2	–	inactive: -0.825%

SMILES	Potency	activity change, negative = growth inhibition
CCOc1cc2c(cc1OCC)C(c1ccccc1)N(c1ccc(C(=O)O)cc1)C(=O)C2 (stereo not given)	–	inactive: -6.67%
COc1cccc(CNC2CCCCCCC2)c1OC	–	inactive: -18.8%
CCCc1nnc(SCC(=O)Nc2ccc(C(=O)OCC)cc2)o1	inconclusive [inhibitor, single point]	–
COc1cc(C(=O)O/N=C2\C=CC(=O)C=C2C)cc(OC)c1OC	inconclusive [inhibitor, partial curve]	–
COc1ccc(-c2cnnc(N/N=C/c3ccc(C)o3)n2)cc1	active: 18.4 µM	–
CN1[C@@H]2CC[C@H]1CC(OC(c1ccccc1)c1ccccc1)C2 (stereo not given in full)	inactive and active: 8.41 µM and active: 21.1 µM	–
O=C(Nc1cccnc1)C1Cc2c(-c3ccccc3Oc3ccccc3)ccnc2O1 (stereo not given)	active: 23.1 µM	–
CCOc1ccc(CC(=O)Nc2c(C(=O)c3ccc(F)cc3)oc3ccccc23)cc1OCC	inconclusive [inhibitor, partial curve]	–
Clc1ccccc1OCc1nc(-c2ccccn2)no1	inconclusive [inhibitor, single point]	–
CNC(=O)NC(=O)C(C)OC(=O)c1c2c(nc3ccccc13)/C(=C/c1cccs1)CC2 (stereo not given)	active: 18.4 µM	–
CC(NC(=O)CSc1nc2ccccc2n1CCC#N)c1ccc(F)cc1 (stereo not given)	inconclusive [inhibitor, single point]	–
O=C(CNS(=O)(=O)c1ccc(Br)s1)N1CCN(c2ncccn2)CC1	–	inactive: -15.8%
O=C(O)C(c1ccccc1)N1C(=O)/C(=C/c2cccs2)SC1=S (stereo not given)	–	inactive: -11.7%
O=C(c1ccc2noc(-c3ccccc3)c2c1)N1CCN(c2ccccc2)CC1	inconclusive [inhibitor, single point]	–
CCC(O)c1nc2ccccc2n1Cc1cccc(Cl)c1 (stereo not given)	active: 18.4 µM	–
c1ccc(-c2ccccc2OCCCN2CCCC2)cc1	inconclusive [inhibitor, single point]	–
COc1ccc(OC)c(NC(=O)NCCN2CCN(c3ccccc3)CC2)c1	–	inactive: 14.1%
CCCCn1c(SCc2nc(N)nc(Nc3ccccc3C)n2)nc2ccccc2c1=O	active: 18.4 µM	–
CC12CCC3c4ccc(OCc5ccccc5)cc4CCC3C1CC(O)C2O (stereo not given)	inconclusive [inhibitor, single point]	–
COc1cc(C(CC(=O)N2CCCC2)c2c(OC)cc(OC)c3c(-c4ccccc4)cc(=O)oc23)cc(OC)c1OC (stereo not given)	inconclusive [inhibitor, single point]	–
O=C(c1cnccn1)N1CCC[C@@]2(CCN(Cc3cc(C(F)(F)F)cc(C(F)(F)F)c3)C2)C1	inconclusive [inhibitor, single point]	–
Cc1ccc(CNc2oc(-c3ccco3)nc2S(=O)(=O)c2ccccc2)cc1	inconclusive [inhibitor, partial curve]	–
